Biological target: T1, Caspase 1 (Homo sapiens, UniProt P29466)
T1 sequence (P29466 120-297 limits assumed): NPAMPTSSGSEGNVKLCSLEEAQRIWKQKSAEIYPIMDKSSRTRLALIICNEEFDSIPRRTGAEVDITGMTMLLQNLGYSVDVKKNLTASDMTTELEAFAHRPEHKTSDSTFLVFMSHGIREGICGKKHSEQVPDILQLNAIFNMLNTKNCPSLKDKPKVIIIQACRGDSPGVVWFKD
T1 sequence (P29466 317-404 limits assumed): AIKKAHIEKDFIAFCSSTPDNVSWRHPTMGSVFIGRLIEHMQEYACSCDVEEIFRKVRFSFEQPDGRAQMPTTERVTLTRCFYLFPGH
Assay: FLICA flow cytometry of active caspase-1 in PBMCs from Emricasan-treated COVID-19(+) whole blood (Example 7)
Conditions: 1 μM, 3.5 hours at room temperature, then nigericin 2 hours, CD3-, CD3+CD4+ cells, vs untreated, p≤0.005

C[C@H](NC(=O)C(=O)Nc1ccccc1C(C)(C)C)C(=O)N[C@@H](CC(=O)O)C(=O)COc1c(F)c(F)cc(F)c1F [Emricasan, (3S)-3-{[(2S)-2-{[2-(2-tert-butylanilino)-2-oxoacetyl]amino}propanoyl]amino}-4-oxo-5-(2,3,5,6-tetrafluorophenoxy)pentanoic acid]
active caspase-1 % positive cells: significant reduction | active caspase-1 MFI: significant reduction

Reference: patent US20230042509A1, “TREATMENT FOR DISEASES CAUSED BY RNA VIRUSES” (Amerimmune LLC, priority 2021, published 2023)
